From paper PMC11743776, “Isoxazole-based molecules restore NK cell immune surveillance in hepatocarcinogenesis by targeting TM4SF5 and SLAMF7 linkage” (Signal Transduction and Targeted Therapy, 2025)
Numbering of substitutions follows the chain as printed. Names may count otherwise. Results are given in words; binding and its absence hold for the method and conditions named. Binding seen in cells or lysates may run through a third protein. Some results given as binding are weak or reduced against the parent protein; the word gives no strength. For part of these data: Sequences can lack the tags named with a protein. One block for each molecule: values may come before it.

Protein sequences, listed by entry. Tags and fused reporters are not part of them. Lines headed by an entry give the natural chain unless they say otherwise; changes in a name come on top.
UniProt O14894: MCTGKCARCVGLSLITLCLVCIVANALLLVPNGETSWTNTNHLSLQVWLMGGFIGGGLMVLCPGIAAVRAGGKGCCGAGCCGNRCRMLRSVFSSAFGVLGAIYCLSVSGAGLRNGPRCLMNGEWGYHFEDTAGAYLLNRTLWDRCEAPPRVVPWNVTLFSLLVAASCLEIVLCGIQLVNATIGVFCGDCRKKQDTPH

Columns and labels:
[1] = target: T1, LAMP1, endogenous in HCC patient liver tissue (human (endogenous in HCC patient tissue)) (UniProt P11279); test: co-IP; whole tissue extracts of HCC patient tumor and non-tumor liver tissues immunoprecipitated with anti-LAMP1 antibody, immunoblot for TM4SF5 and SLAMF7
T1 sequence: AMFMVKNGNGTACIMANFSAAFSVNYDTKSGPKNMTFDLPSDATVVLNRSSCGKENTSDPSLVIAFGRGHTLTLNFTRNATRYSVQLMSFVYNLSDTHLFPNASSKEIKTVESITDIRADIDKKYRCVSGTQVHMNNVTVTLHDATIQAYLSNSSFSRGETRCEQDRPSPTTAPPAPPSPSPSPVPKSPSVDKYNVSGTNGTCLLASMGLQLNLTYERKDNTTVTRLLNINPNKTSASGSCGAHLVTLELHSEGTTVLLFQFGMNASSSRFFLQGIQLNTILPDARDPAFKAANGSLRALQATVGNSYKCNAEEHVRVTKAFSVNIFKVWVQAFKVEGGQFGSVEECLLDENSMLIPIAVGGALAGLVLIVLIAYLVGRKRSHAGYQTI

[2] = target: Strep-TM4SF5 (transmembrane 4 L six family member 5), wild type (human) (UniProt O14894); test: pull-down; as a1, but the SNU761 cells expressing Strep-TM4SF5 were treated with ST-5-001 (DMSO as control) before harvest; streptavidin-agarose pull-down, immunoblot for SLAMF7
[3] = target: Strep-TM4SF5 (transmembrane 4 L six family member 5), wild type (human) (UniProt O14894); test: pull-down; lysates of subconfluent SNU761 cells expressing Strep-TM4SF5 pulled down with streptavidin-agarose beads (4 h, 4 °C), immunoblot for endogenous SLAMF7
[4] = target: Strep-TM4SF5 (transmembrane 4 L six family member 5), wild type (human) (UniProt O14894); test: pull-down; SNU761 cells transfected with Strep-TM4SF5 (WT or Gly−) and FLAG-SLAMF7 (WT, deletion or N-glycosylation mutants), lysed in Brij58 lysis buffer (20 mM HEPES pH 7.4, 150 mM NaCl, 2 mM MgCl2, 2 mM CaCl2, 1% Brij58), streptavidin-agarose 4 h at 4 °C, immunoblot; also after treatment of the cells for 24 h with ST-5-002 (binding reduced) or ST-3-001 (binding not reduced, rather increased)
[5] = target: Strep-TM4SF5 Gly− (N-glycosylation-deficient, N138A/N155Q) (human) (UniProt O14894); test: as above
[6] = target: Strep-TM4SF5 (transmembrane 4 L six family member 5), wild type (human) (UniProt O14894); test: co-IP; SNU761 cells transiently transfected with WT or N-glycosylation mutants of SLAMF7, coimmunoprecipitation with TM4SF5 (Fig. 4f); details not told

binding [1]: binds
Molecule: TM4SF5, endogenous in HCC patient liver tissue (from UniProt O14894 1-197)

binding [3]: binds
B1: SLAMF7 (signaling lymphocytic activation molecule family member 7), endogenous in SNU761 cells (protein, UniProt Q9NQ25 23-335)
chain: SGPVKELVGSVGGAVTFPLKSKVKQVDSIVWTFNTTPLVTIQPEGGTIIVTQNRNRERVDFPDGGYSLKLSKLKKNDSGIYYVGIYSSSLQQPSTQEYVLHVYEHLSKPKVTMGLQSNKNGTCVTNLTCCMEHGEEDVIYTWKALGQAANESHNGSILPISWRWGESDMTFICVARNPVSRNFSSPILARKLCEGAADDPDSSMVLLCLLLVPLLLSLFVLGLFLWFLKRERQEEYIEEKKRVDICRETPNICPHSGENTEYDTIPHTNRTILKEDPANTVYSTVEIPKKMENPHSLLTMPDTPRLFAYENVI
binding [2]: no binding (condition: cells treated with ST-5-001)

binding [4]: binds
binding [5]: no binding
B2: FLAG-SLAMF7, wild type (protein, UniProt Q9NQ25 23-335)
chain: B1 chain

binding [1]: binds
B4: SLAMF7, endogenous in HCC patient liver tissue (protein, UniProt Q9NQ25 23-335)
chain: B1 chain

binding [6]: binds weakly
B7: SLAMF7 NQ#123 (N98/142/148Q) (protein, UniProt Q9NQ25 23-335)
chain: B1 chain with N76Q, N120Q, N126Q

Continued, molecule first:

B3: FLAG-SLAMF7 NQ#456 (N172/176/204Q) (protein, UniProt Q9NQ25 23-335)
chain: B1 chain with N150Q, N154Q, N182Q
binding [4]: no binding

B5: FLAG-SLAMF7 NQ#45 (N172/176Q) (protein, UniProt Q9NQ25 23-335)
chain: B1 chain with N150Q, N154Q
binding [4]: no binding

B6: FLAG-SLAMF7 NQ#6 (N204Q) (protein, UniProt Q9NQ25 23-335)
chain: B1 chain with N182Q
binding [4]: no binding

B8: FLAG-SLAMF7 ΔECD (Δ1–225) (domain or fragment, UniProt Q9NQ25 226-335)
chain: MVLLCLLLVPLLLSLFVLGLFLWFLKRERQEEYIEEKKRVDICRETPNICPHSGENTEYDTIPHTNRTILKEDPANTVYSTVEIPKKMENPHSLLTMPDTPRLFAYENVI
binding [4]: binds

B9: FLAG-SLAMF7 ΔTM (Δ226–247) (protein, UniProt Q9NQ25)
chain: SGPVKELVGSVGGAVTFPLKSKVKQVDSIVWTFNTTPLVTIQPEGGTIIVTQNRNRERVDFPDGGYSLKLSKLKKNDSGIYYVGIYSSSLQQPSTQEYVLHVYEHLSKPKVTMGLQSNKNGTCVTNLTCCMEHGEEDVIYTWKALGQAANESHNGSILPISWRWGESDMTFICVARNPVSRNFSSPILARKLCEGAADDPDSSWFLKRERQEEYIEEKKRVDICRETPNICPHSGENTEYDTIPHTNRTILKEDPANTVYSTVEIPKKMENPHSLLTMPDTPRLFAYENVI
binding [4]: no binding
